# In paper PMC5892938:
# This is one part of the list. At the low end of the ranking the order means little.
# Biological target: GST-SBP-SLBP (stem-loop binding protein) (UniProt Q14493)
# Experiment: targeted RNA Bind-n-Seq;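 further: DESeq read counts versus GST-SBP nonspecific binding control pulldown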
# Conditions: RBNS binding buffer: 25 mM Tris pH 7.5, 150 mM KCl, 3 mM MgCl2, 0.1% Tween, 0.5 mg/mL BSA, 1 mM DTT; 27 nM protein, 750 pM RNA pool; temperature not stated; high values mean tight binding
row,Sequence,binding signal (log2 fold change)
1,GGUCACGUCUCAAUCAACUCUAAAGAGGGGGGGAAAACCCCUUUACCCUCGCCAUCAACAGCUCGCAGUCAAG,-0.0672
2,GGUCACGUCUCAAUCAACUCUUUUUCCAGGGAAAGCCCUGGUUUUCUCAACAGCUCGCAGUCAAG,-0.145
3,GGUCACGUCUCAAUCAACUCAUUCCCCAGGGAAAUCCCUGGCUUUCUCAACAGCUCGCAGUCAAG,0.142
4,GGUCACGUCUCAAUCAACUCAUCUCCAGGAGUUUUCUCCUGUAAUCUCAACAGCUCGCAGUCAAG,0.196
5,GGUCACGUCUCAAUCAACUCAUCGGAGGGGGGGAAAACCCCUUUACCCUCAUUCUCAACAGCUCGCAGUCAAG,-0.201
6,GGUCACGUCUCAAUCAACUCAACUCCAGGAGUUUCCUCCUGUAAUGUCAACAGCUCGCAGUCAAG,0.032
7,GGUCACGUCUCAAUCAACUCUCUAGAGGGGGGGAAAACCCCUUUACCCUCACUAUCAACAGCUCGCAGUCAAG,-0.131
8,GGUCACGUCUCAAUCAACUCUUUUUCAGGAGUUUACUCCUGUAUUCUCAACAGCUCGCAGUCAAG,0.0101
9,GGUCACGUCUCAAUCAACUCUACUUCCAGGGAAAACCCUGGUUAUUUCAACAGCUCGCAGUCAAG,-0.0952
10,GGUCACGUCUCAAUCAACUCUCAAGAGGGGGGGAAAACCCCUUUGCCCUCAUAAUCAACAGCUCGCAGUCAAG,0.148
11,GGUCACGUCUCAAUCAACUCAUCCUCAGGAGUUUGCUCCUGCUAUUUCAACAGCUCGCAGUCAAG,0.0485
12,GGUCACGUCUCAAUCAACUCAUUCCCAGGAGUUUUCUCCUGUAUUUUCAACAGCUCGCAGUCAAG,0.0436
13,GGUCACGUCUCAAUCAACUCUAUUCCCAGGGAAAGCCCUGGCAAACUCAACAGCUCGCAGUCAAG,0.0865
14,GGUCACGUCUCAAUCAACUCUAAAGAGGGGGGGAAAACCCCUUUGCCCUCGUAUUCAACAGCUCGCAGUCAAG,-0.0239
15,GGUCACGUCUCAAUCAACUCCAAAGAGGGGGGGAAAACCCCUUUGCCCUCACAUUCAACAGCUCGCAGUCAAG,-0.236
16,GGUCACGUCUCAAUCAACUCUUCCUCCAGGGAAAGCCCUGGUAAAUUCAACAGCUCGCAGUCAAG,-0.0366
17,GGUCACGUCUCAAUCAACUCAUUCCCAGGAGUUUUCUCCUGCAAAGUCAACAGCUCGCAGUCAAG,0.264
18,GGUCACGUCUCAAUCAACUCAUUCUCAGGAGUUUUCUCCUGCAUACUCAACAGCUCGCAGUCAAG,0.26
19,GGUCACGUCUCAAUCAACUCAAUUCCCAGGGAAAUCCCUGGCAAAUUCAACAGCUCGCAGUCAAG,0.066
20,GGUCACGUCUCAAUCAACUCAAGUCCAGGAGUUUUCUCCUGUUUUUUCAACAGCUCGCAGUCAAG,0.0629
21,GGUCACGUCUCAAUCAACUCUAUUCCCAGGGAAAACCCUGGUAUUCUCAACAGCUCGCAGUCAAG,-0.00175
22,GGUCACGUCUCAAUCAACUCUAUAGAGGGGGGGAAAACCCCUUUACCCUCAUUAUCAACAGCUCGCAGUCAAG,0.142
23,GGUCACGUCUCAAUCAACUCUUCGUCAGGAGUUUACUCCUGUUAAUUCAACAGCUCGCAGUCAAG,-0.073
24,GGUCACGUCUCAAUCAACUCAAUCCCCAGGGAAACCCCUGGCUUUCUCAACAGCUCGCAGUCAAG,-0.216
25,GGUCACGUCUCAAUCAACUCUUUAGAGGGGGGGAAAACCCCUUUACCCUCGUUUUCAACAGCUCGCAGUCAAG,-0.0266

row,Sequence,binding signal (log2 fold change)
1,GGUCACGUCUCAAUCAACUCUAUGUCCAGGGAAAGCCCUGGUUUUCUCAACAGCUCGCAGUCAAG,-0.0931
2,GGUCACGUCUCAAUCAACUCUUUCUCCAGGGAAAACCCUGGUAAUGUCAACAGCUCGCAGUCAAG,0.0136
3,GGUCACGUCUCAAUCAACUCAUCUCCCAGGGAAAACCCUGGCAUAUUCAACAGCUCGCAGUCAAG,0.0576
4,GGUCACGUCUCAAUCAACUCUAUCUCCAGGGAAAACCCUGGUUAUCUCAACAGCUCGCAGUCAAG,0.238
5,GGUCACGUCUCAAUCAACUCAAUCUCAGGAGUUUGCUCCUGUAUUCUCAACAGCUCGCAGUCAAG,0.276
6,GGUCACGUCUCAAUCAACUCAACUUCCAGGGAAAGCCCUGGCUUUCUCAACAGCUCGCAGUCAAG,-0.0445
7,GGUCACGUCUCAAUCAACUCUAUUUCAGGAGUUUACUCCUGUAUUUUCAACAGCUCGCAGUCAAG,-0.0868
8,GGUCACGUCUCAAUCAACUCAUCUUCAGGAGUUUUCUCCUGUUAACUCAACAGCUCGCAGUCAAG,-0.047
9,GGUCACGUCUCAAUCAACUCAUCUCCAGGAGUUUUCUCCUGUAAUUUCAACAGCUCGCAGUCAAG,0.192
10,GGUCACGUCUCAAUCAACUCCACAGAGGGGGGGAAAACCCCUUUACCCUCACAUUCAACAGCUCGCAGUCAAG,-0.0597
11,GGUCACGUCUCAAUCAACUCAACGGAGGGGGGGAAAACCCCUUUACCCUCAGAAUCAACAGCUCGCAGUCAAG,0.197
12,GGUCACGUCUCAAUCAACUCCUAAGAGGGGGGGAAAACCCCUUUGCCCUCAAUCUCAACAGCUCGCAGUCAAG,-0.411
13,GGUCACGUCUCAAUCAACUCUAUGUCAGGAGUUUUCUCCUGUAAAUUCAACAGCUCGCAGUCAAG,-0.175
14,GGUCACGUCUCAAUCAACUCUAUUCCCAGGGAAACCCCUGGCUUUUUCAACAGCUCGCAGUCAAG,0.0703
15,GGUCACGUCUCAAUCAACUCAUGUCCAGGAGUUUUCUCCUGUUUUUUCAACAGCUCGCAGUCAAG,0.127
16,GGUCACGUCUCAAUCAACUCUUCCUCCAGGGAAAGCCCUGGCAAUGUCAACAGCUCGCAGUCAAG,0.09
17,GGUCACGUCUCAAUCAACUCAACUUCAGGAGUUUGCUCCUGUUAUUUCAACAGCUCGCAGUCAAG,-0.0913
18,GGUCACGUCUCAAUCAACUCAUCGUCAGGAGUUUGCUCCUGCUUUCUCAACAGCUCGCAGUCAAG,0.113
19,GGUCACGUCUCAAUCAACUCAACUUCAGGAGUUUUCUCCUGUAAUUUCAACAGCUCGCAGUCAAG,0.0364
20,GGUCACGUCUCAAUCAACUCAUCCCCAGGAGUUUUCUCCUGUAAAGUCAACAGCUCGCAGUCAAG,-0.0193
21,GGUCACGUCUCAAUCAACUCAUCCUCAGGAGUUUACUCCUGCAAUCUCAACAGCUCGCAGUCAAG,0.0951
22,GGUCACGUCUCAAUCAACUCAUUCCCCAGGGAAAACCCUGGCUUUUUCAACAGCUCGCAGUCAAG,0.0267
23,GGUCACGUCUCAAUCAACUCUACUCCCAGGGAAAACCCUGGCUAUUUCAACAGCUCGCAGUCAAG,-0.137
24,GGUCACGUCUCAAUCAACUCAUCGGCCAGGGAAACCCCUGGGAAUCUCAACAGCUCGCAGUCAAG,-0.174
25,GGUCACGUCUCAAUCAACUCAUCUUCCAGGGAAACCCCUGGUAAUCUCAACAGCUCGCAGUCAAG,0.198

row,Sequence,binding signal (log2 fold change)
1,GGUCACGUCUCAAUCAACUCUAUUCCCAGGGAAAGCCCUGGCUUAUUCAACAGCUCGCAGUCAAG,0.178
2,GGUCACGUCUCAAUCAACUCUUCGCCAGGAGUUUUCUCCUGCUAUUUCAACAGCUCGCAGUCAAG,0.0485
3,GGUCACGUCUCAAUCAACUCUAUCCCCAGGGAAAGCCCUGGCAUAUUCAACAGCUCGCAGUCAAG,-0.0964
4,GGUCACGUCUCAAUCAACUCUUUCCCAGGAGUUUUCUCCUGCUAUGUCAACAGCUCGCAGUCAAG,0.0645
5,GGUCACGUCUCAAUCAACUCUAUAGAGGGGGGGAAAACCCCUUUGCCCUCACCGUCAACAGCUCGCAGUCAAG,-0.265
6,GGUCACGUCUCAAUCAACUCUUCCUCCAGGGAAAACCCUGGCUUUUUCAACAGCUCGCAGUCAAG,0.185
7,GGUCACGUCUCAAUCAACUCAAUUUCAGGAGUUUCCUCCUGUUUAUUCAACAGCUCGCAGUCAAG,-0.0395
8,GGUCACGUCUCAAUCAACUCAUUCCCAGGAGUUUACUCCUGCAAUCUCAACAGCUCGCAGUCAAG,0.00852
9,GGUCACGUCUCAAUCAACUCUACUUCCAGGGAAACCCCUGGUUUAUUCAACAGCUCGCAGUCAAG,0.162
10,GGUCACGUCUCAAUCAACUCAUUCUCCAGGGAAAACCCUGGCAAUUUCAACAGCUCGCAGUCAAG,-0.119
11,GGUCACGUCUCAAUCAACUCUCAGGAGGGGGGGAAAACCCCUUUACCCUCACCAUCAACAGCUCGCAGUCAAG,-0.0507
12,GGUCACGUCUCAAUCAACUCAUCUCCAGGAGUUUCCUCCUGCAUAUUCAACAGCUCGCAGUCAAG,-0.107
13,GGUCACGUCUCAAUCAACUCCAACGAGGGGGGGAAAACCCCUUUACCCUCAUUUUCAACAGCUCGCAGUCAAG,-0.395
14,GGUCACGUCUCAAUCAACUCUACUCCCAGGGAAAGCCCUGGCAAUCUCAACAGCUCGCAGUCAAG,-0.277
15,GGUCACGUCUCAAUCAACUCAUUUCCCAGGGAAAACCCUGGUUUUCUCAACAGCUCGCAGUCAAG,0.244
16,GGUCACGUCUCAAUCAACUCCCCAGAGGGGGGGAAAACCCCUUUACCCUCAUCAUCAACAGCUCGCAGUCAAG,-0.284
17,GGUCACGUCUCAAUCAACUCUAGUCCAGGAGUUUUCUCCUGUUAAUUCAACAGCUCGCAGUCAAG,0.331
18,GGUCACGUCUCAAUCAACUCUUCUUCAGGAGUUUCCUCCUGCUAUCUCAACAGCUCGCAGUCAAG,-0.0214
19,GGUCACGUCUCAAUCAACUCUACUCCCAGGGAAACCCCUGGUAAAUUCAACAGCUCGCAGUCAAG,-0.11
20,GGUCACGUCUCAAUCAACUCAAGUCCAGGAGUUUGCUCCUGCUAUUUCAACAGCUCGCAGUCAAG,-0.0307
21,GGUCACGUCUCAAUCAACUCAUCUUCAGGAGUUUACUCCUGUAUACUCAACAGCUCGCAGUCAAG,-0.2
22,GGUCACGUCUCAAUCAACUCUUUCCCCAGGGAAAUCCCUGGUUUUUUCAACAGCUCGCAGUCAAG,-0.331
23,GGUCACGUCUCAAUCAACUCUACUUCCAGGGAAAUCCCUGGUUAUUUCAACAGCUCGCAGUCAAG,0.0578
24,GGUCACGUCUCAAUCAACUCAUCCCCCAGGGAAAACCCUGGUAUAUUCAACAGCUCGCAGUCAAG,-0.176
